Experimental data taken from PubChem BioAssay AID463173 (ICCB-Longwood Screening Facility, Harvard Medical School, 2010).
Hit rate of the full screen: of about 52,000 compounds, about 1,700 (3.3%) were called active. Rule as the data show it: active = survival mostly below about 52% (no sharp cut-off); inactive = mostly above about 56%. The list shows a part of the results.

These molecules were tested on Wild type (assay: growth inhibition of S. aureus wild type versus tarO mutant, primary screen, teichoic acid synthesis inhibitors, RN4220, OD600 (AID 463173)). Conditions: S. aureus RN4220 wild type/DeltatarO growth, OD600, 18 h, active compounds read low, screened at 18.75 µg/mL (by protocol).

Row | SMILES | survival
1 | COCc1cc(C)nc2sc(C(=O)Nc3ccccc3O)c(N)c12 | inactive: 93%
2 | Cc1ccc(OCCn2cc(C(=O)c3cccs3)c3ccccc32)cc1 | inactive: 73%
3 | COc1ccc(C2CC(=O)c3c([nH]c(C(=O)OCc4ccccc4)c3C)C2)cc1 (centres undefined) | inactive: 90%
4 | Cc1ccccc1NC(=O)c1cc2c(-c3ccccc3)nn(-c3ccccc3)c2s1 | inactive: 86%
5 | Cc1cc(C)nc(N(C#N)CCOc2ccc(Cl)cc2)n1 | inactive: 109%
6 | COc1ccc(N(Cc2ccccc2)C(=O)c2nc(S(C)(=O)=O)ncc2Cl)cc1 | inactive: 61%
7 | COc1ccccc1NC(=O)C1=C(C)Nc2c(C(=O)Nc3ccc(C)cc3)cnn2C1c1cccc(OC)c1OC (centres undefined) | active: 14%
8 | COc1ccc(CNC(=O)Cn2c(=O)nc(-c3ccccc3)c3cc(Cl)ccc32)cc1OC | inactive: 68%
9 | CCCSCCCNC(=O)C1CCN(C(=O)c2cnn(-c3ccccc3)c2-n2cccc2)CC1 | inactive: 102%
10 | COc1cccc(C(=O)Nc2ccc(-n3nncc3-c3ccccc3)cc2)c1OC | inactive: 113%
11 | Cc1cccc(N2CCN(C(=O)Cn3nc(C)c4sc5ccccc5c4c3=O)CC2)c1C | inactive: 66%
12 | CCc1ccc(NCc2cc3ccc(OC)cc3n(CC(=O)Nc3ccccc3C)c2=O)cc1 | inactive: 84%
13 | CS(=O)(=O)c1ccc2nc(NC(=O)CN3C(=O)c4ccccc4C3=O)sc2c1 | inactive: 106%
14 | COc1ccc(NC(=O)CSc2nc(-c3cccs3)cc(C(F)(F)F)n2)cc1Cl | inactive: 64%
15 | CCc1ccccc1S(=O)(=O)Cc1ccc(C(=O)NCc2ccc(Cl)cc2)o1 | inactive: 76%
16 | COC(=O)c1ccc(Cl)cc1NC(=O)Nc1nnc(N(C)C2CCCCC2)s1 | inactive: 84%
17 | COc1ccc(CCC(=O)NCc2ccc3c(c2)CCN3C(=O)c2ccc(Cl)cc2)cc1 | inactive: 80%
18 | Cc1ccc(CNC(=O)C(NS(=O)(=O)c2cccs2)C(C)C)cc1 (centres undefined) | inactive: 78%
19 | Cc1ccc(CSC2=Nc3ccccc3C3=NC(CCC(=O)NC4CCCCC4)C(=O)N23)cc1 (centres undefined) | inactive: 128%
20 | Cc1ccc(/C(C#N)=C\c2ccco2)cc1 | inactive: 118%
21 | CCc1c(C)sc2c1CCN(Cc1cccc(OC)c1)C2c1ccccc1 (centres undefined) | inactive: 47%
22 | CCc1ccc(C(=O)CC2(O)C(=O)N(CCc3ccccc3)c3ccc(Br)cc32)cc1 (centres undefined) | inactive: 36%
23 | CCCCN(CCCC)CCNC(=O)Cn1nc(CC)n2c(cc3sccc32)c1=O | inactive: 89%
24 | CCC1=Nc2cc(C(=O)NCCc3ccc(OC)c(OC)c3)ccc2Sc2ccccc21 | inactive: 77%
